According to PubChem BioAssay (Tox21):
Where “and” joins values, the source holds several entries; their conditions need not be identical. Identical values can stand only once. Inconclusive means that the source gave no clear call. Such entries were picked first, then a sample of the others. Potencies beside an inconclusive call are fits to weak or partial responses and may not hold up. Calls of active or inactive are those of the source. The call rests on the fitted dose curve; in most records, active means well fitted inhibition curve with a large enough effect in the repeat runs; inconclusive means weak or mixed curves; inactive means no such curve, though single readings can be large or run the other way.

molecular target: Cytochrome P450 3A4 (Homo sapiens) (UniProt P08684); test: Cytochrome P450 Family 3 Subfamily A Member 4 (CYP3A4) small molecule antagonists: luciferase reporter qHTS assay (AID 1671201); settings: P450-Glo CYP3A4 enzyme, luciferin luminescence, 1 h; series mostly up to 115 µM; further: nearly all actives have a fitted effect of over 50% in size
Method in brief: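 Compounds in DMSO were pin-transferred onto CYP3A4 enzyme-substrate mix and held 10 min at room temperature. NADPH regenerating solution started the reaction for 1 h; luciferin detection reagent stopped it, and luminescence was read after 20 min.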
Potency means the concentration at half of the fitted maximal effect; tags describe the fitted curve by direction and shape.

Chain of UniProt P08684 (P08684 whole entry, looked up): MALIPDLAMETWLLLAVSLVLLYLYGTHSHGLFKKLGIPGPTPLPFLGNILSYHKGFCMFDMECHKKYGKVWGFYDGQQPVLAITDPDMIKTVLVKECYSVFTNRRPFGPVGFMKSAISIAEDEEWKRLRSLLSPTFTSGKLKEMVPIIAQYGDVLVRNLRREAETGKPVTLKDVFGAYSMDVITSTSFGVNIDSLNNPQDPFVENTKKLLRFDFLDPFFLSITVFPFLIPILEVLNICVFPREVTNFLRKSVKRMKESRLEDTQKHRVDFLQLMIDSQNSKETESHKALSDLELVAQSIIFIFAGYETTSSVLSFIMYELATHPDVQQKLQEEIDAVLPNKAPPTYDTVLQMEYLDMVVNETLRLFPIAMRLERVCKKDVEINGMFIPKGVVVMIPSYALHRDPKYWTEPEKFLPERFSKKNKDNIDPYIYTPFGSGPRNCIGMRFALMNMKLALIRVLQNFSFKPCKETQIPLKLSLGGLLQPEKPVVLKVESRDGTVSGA

| SMILES | Potency |
| --- | --- |
| CC(C)=NNC(N)=S | inactive |
| CCCCCOC(=O)c1ccc(O)cc1 | inconclusive: 101 µM [inhibitor, single point] |
| Nc1ccc(C(=O)OCCCOC(=O)c2ccc(N)cc2)cc1 | active: 2.24 µM |
| O=[N+]([O-])c1ccc(O)cc1C(F)(F)F | inconclusive: 1.26 µM [inhibitor, full curve, poor fit] |
| COc1ccc2c(c1)c(CC(=O)O)c(C)n2C(=O)c1ccc(Cl)cc1 | inconclusive: 22.6 µM [inhibitor, partial curve] and inconclusive: 11 µM [inhibitor, partial curve, poor fit] |
